Values joined by “and” are separate entries in the source; they are usually repeats but may differ in a detail not shown here. Equal entries are not always repeated. Inconclusive means that the source gave no clear call. Such entries were picked first, then a sample of the others. Potencies of inconclusive entries are doubtful fits and often do not repeat. Active and inactive are the calls of the source. The call rests on the fitted dose curve; in most records, active means well fitted curve in the direction sought with a large enough effect in the repeat runs; inconclusive means weak or mixed curves; inactive means no such curve, though single readings can be large; an effect the other way counts as inactive or inconclusive.
Columns and labels:
[1] = qHTS RealTime-Glo MT Cell Viability Assay in HEK293 cells - 32 hour (AID 1224868); further: nearly all actives have a fitted effect of over 50% in size
Outline: (§1)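 Luminescence generated by NanoLuc from substrate produced by living HEK293 cells served as the viability signal. Each value reflects the reading at its stated time point during continuous 40 h compound exposure at 37 C.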

[2] = A CellTox Green Cytotoxicity Assay to monitor cytotoxicity in HEK293 cells - 40 hour (AID 1224871); further: nearly all actives have a fitted effect of over 45% in size
Outline: (§2)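 Tox21 screen in HEK293: membrane-impermeant cyanine dye fluoresces on binding dead-cell DNA; compound pinned 5 h post-seeding, plates held at 37 C, signal read repeatedly through 40 h.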

[3] = qHTS RealTime-Glo MT Cell Viability Assay in HEK293 cells - 16 hour (AID 1224872); further: nearly all actives have a fitted effect of over 50% in size
Outline: as §1

[4] = qHTS RealTime-Glo MT Cell Viability Assay in HEK293 cells - 40 hour (AID 1224874); details: RealTime-Glo luminescence; max response: stronger effect = lower value; further: nearly all actives have a fitted effect of over 50% in size
Outline: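 HEK293 + NanoLuc + prosubstrate, 600 cells/well; 5 h, 37 C/5% CO2; compound 23 nL in DMSO by pintool; 37 C; luminescence read at 0, 8, 16, 24, 32 and 40 h time points.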

[5] = A CellTox Green Cytotoxicity Assay to monitor cytotoxicity in HEK293 cells - 24 hour (AID 1224875); further: nearly all actives have a fitted effect of over 45% in size
Outline: as §2

[6] = qHTS RealTime-Glo MT Cell Viability Assay in HepG2 cells - 8 hour (AID 1224873); further: nearly all actives have a fitted effect of over 55% in size
Outline: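 HepG2 cells mixed with RealTime-Glo MT reagents (NanoLuc plus cell-permeant prosubstrate) were seeded at 600 cells/well, incubated 5 h at 37 C/5% CO2, then pinned with compounds in DMSO; nonlytic luminescence tracked viability during 40 h treatment.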
Potency means the concentration at half of the fitted maximal effect; tags describe the fitted curve by direction and shape.

SMILES | Potency [1] | Potency [2] | Potency [3] | Potency [4] | Potency [5] | Potency [6]
Clc1cc(C(Cl)(Cl)Cl)cnc1Cl | active: 34.7 µM | inconclusive: 24.5 µM [activator, partial curve] | inconclusive: 34.7 µM [cytotoxic, partial curve] | inconclusive: 34.7 µM [cytotoxic, partial curve] | inconclusive: 24.5 µM [activator, partial curve, poor fit] | –
CCNc1nc(NC(C)(C)C)nc(SC)n1 | inconclusive: 49 µM [cytotoxic, partial curve, poor fit] | inconclusive: 3.05 µM [activator, full curve, poor fit] and inactive | inconclusive: 43.1 µM [cytotoxic, partial curve] | active: 27.2 µM and inconclusive: 38.9 µM [cytotoxic, partial curve] | inconclusive: 3.84 µM [activator, partial curve] | –
CC1(C)CC/C(=C/c2ccc(Cl)cc2)C1(O)Cn1cncn1 (stereo not drawn) | inconclusive: 27.4 µM [cytotoxic, full curve] | inconclusive: 54.6 µM [activator, single point] | inconclusive: 34.5 µM [cytotoxic, partial curve] | inconclusive: 41.7 µM [cytotoxic] | – | –
CC1C=[C-]C=C1.[C-]#[O+].[C-]#[O+].[C-]#[O+].[Mn] | inactive | inactive | – | – | – | –
CCCCN(CCCC)SN(C)C(=O)Oc1cccc2c1OC(C)(C)C2 | inconclusive: 44.4 µM [cytotoxic, single point] and inconclusive: 54.9 µM [cytotoxic, single point] | inconclusive: 62.6 µM [activator, single point] | inconclusive: 35.2 µM [cytotoxic, partial curve] and inconclusive: 49 µM [cytotoxic, partial curve] | inconclusive: 44.4 µM [cytotoxic, partial curve, poor fit] | – | –
CC(c1ccccc1)(c1ccc(O)cc1)c1ccc(O)cc1 | active: 43.6 µM | inconclusive: 54.9 µM [activator, single point] | inconclusive: 49 µM [cytotoxic, single point] | active: 43.6 µM | inconclusive: 54.9 µM [activator, single point] | –
O=C1CN=C(c2ccccc2)c2cc(Cl)ccc2N1CC1CC1 | inconclusive: 40.8 µM [cytotoxic, partial curve] | – | inconclusive: 45.8 µM [cytotoxic, single point] | – | – | –
C[C@]12CC[C@H]3[C@@H](CC[C@@]45O[C@@H]4C(O)=C(C#N)C[C@]35C)[C@@H]1CC[C@@H]2O | inconclusive: 43.6 µM [rising, partial curve] | inactive | inconclusive: 54.9 µM [rising, single point] | – | – | –
CCC(=O)Nc1ccc(Cl)c(Cl)c1 | inconclusive: 43.6 µM [cytotoxic, partial curve] | – | active: 44.5 µM and inconclusive: 43.6 µM [cytotoxic, partial curve] | – | – | –
Cc1cccc(N=Nc2ccc(N(C)C)cc2)c1 | inconclusive: 62.7 µM [cytotoxic, single point] and inconclusive: 43.6 µM [cytotoxic, partial curve] | – | inconclusive: 49.8 µM [cytotoxic, partial curve] and inconclusive: 24.5 µM [cytotoxic, partial curve] | – | – | inconclusive: 62.7 µM [falling, partial curve, poor fit] and inconclusive: 49 µM [falling, partial curve, poor fit]
C#C[C@]1(O)C=C[C@H]2[C@@H]3CCC4=CC(=O)CC[C@@H]4[C@H]3CC[C@@]21CC | inconclusive: 21.3 µM [cytotoxic, partial curve, poor fit] | – | inconclusive: 19 µM [cytotoxic, partial curve, poor fit] | inconclusive: 21.3 µM [cytotoxic, partial curve] | – | –
COP(=S)(OC)Oc1ccc(Sc2ccc(OP(=S)(OC)OC)cc2)cc1 | inconclusive: 27.5 µM [cytotoxic, partial curve] | – | inconclusive: 38.9 µM [cytotoxic, partial curve] and inactive | – | – | inactive
c1ccc2c(c1)CCNC2 | inconclusive: 56.4 µM [cytotoxic, single point] | – | inconclusive: 56.4 µM [cytotoxic, single point] | – | – | –
CCCN(CCC)c1c([N+](=O)[O-])cc(C(C)C)cc1[N+](=O)[O-] | inconclusive: 21.4 µM [cytotoxic, partial curve] | – | inconclusive: 21.4 µM [cytotoxic, full curve] | inconclusive: 33.9 µM [cytotoxic, partial curve, poor fit] | – | –
CC(C(O)c1ccccc1)N(C)C/C=C/c1ccccc1 (stereo not drawn) | inconclusive: 23.9 µM [cytotoxic, partial curve, poor fit] | – | inconclusive: 21.3 µM [cytotoxic, partial curve, poor fit] | – | – | –

From PubChem BioAssay (Tox21)
